{"source": "PubChem BioAssay AID720708", "about": "(National Center for Advancing Translational Sciences (NCATS), 2013)", "note": "Screen size: about 360,000 compounds; about 660 (0.18%) were called active. The shares of active, inactive and inconclusive entries below differ from those in the screen. Calls follow the shape of the dose curve; as a rule, active = well fitted inhibition curve with a large enough effect; inconclusive = small, poorly fitted or top-dose-only effect; inactive = no such curve, though single readings can be large or run the other way. No potency is given beside an inconclusive call; the fits are too rough. % is scaled to controls: 0 for no effect and ±100 for the full control effect; potency is read from the fitted curve at half-maximal effect; tags tell the direction and shape of the fitted curve.", "data": [{"target": "Rap guanine nucleotide exchange factor 4 (Homo sapiens) (UniProt Q8WZA2)", "sequence (Q8WZA2 whole entry, looked up)": "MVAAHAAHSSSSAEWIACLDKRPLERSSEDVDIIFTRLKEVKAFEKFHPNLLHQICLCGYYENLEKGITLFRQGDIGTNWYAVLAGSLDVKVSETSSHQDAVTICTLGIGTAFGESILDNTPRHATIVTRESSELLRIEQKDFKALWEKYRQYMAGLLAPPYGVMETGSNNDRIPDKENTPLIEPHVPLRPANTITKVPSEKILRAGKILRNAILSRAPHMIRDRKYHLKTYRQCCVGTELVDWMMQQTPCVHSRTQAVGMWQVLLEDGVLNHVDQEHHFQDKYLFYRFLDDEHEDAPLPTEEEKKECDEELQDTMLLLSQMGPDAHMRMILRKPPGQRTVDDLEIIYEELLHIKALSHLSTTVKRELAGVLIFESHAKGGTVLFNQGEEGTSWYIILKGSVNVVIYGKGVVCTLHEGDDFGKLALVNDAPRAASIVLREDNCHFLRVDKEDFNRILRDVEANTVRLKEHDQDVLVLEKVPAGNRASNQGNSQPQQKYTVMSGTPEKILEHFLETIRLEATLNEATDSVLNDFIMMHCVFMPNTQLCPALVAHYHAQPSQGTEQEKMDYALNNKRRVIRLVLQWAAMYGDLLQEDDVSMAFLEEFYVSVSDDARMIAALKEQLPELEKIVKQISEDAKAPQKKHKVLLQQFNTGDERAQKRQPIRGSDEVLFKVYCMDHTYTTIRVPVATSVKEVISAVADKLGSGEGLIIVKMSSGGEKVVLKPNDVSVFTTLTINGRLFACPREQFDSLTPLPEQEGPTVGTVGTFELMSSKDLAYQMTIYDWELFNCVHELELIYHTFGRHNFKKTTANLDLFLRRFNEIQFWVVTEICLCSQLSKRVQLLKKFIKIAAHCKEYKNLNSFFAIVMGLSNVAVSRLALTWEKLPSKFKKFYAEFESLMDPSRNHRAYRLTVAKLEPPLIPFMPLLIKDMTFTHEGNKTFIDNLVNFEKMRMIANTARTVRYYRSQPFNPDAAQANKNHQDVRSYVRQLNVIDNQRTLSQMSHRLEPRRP", "test": "qHTS for Antagonist of cAMP-regulated guanine nucleotide exchange factor 2 (EPAC2): primary screen; also: nearly all actives have a fitted effect of over 45% in size", "details": "EPAC2 GEF exchange of Rap1B-BODIPY-GDP, fluorescence; activity, negative = inhibition: at 114 µM (top of the series) unless noted", "values": [{"compound": "O=S(=O)(c1cccc2cccc(Cl)c12)N1CCCC1", "activity, negative = inhibition": "inconclusive: -18.3% [inhibitor]"}, {"compound": "CCN(Cc1ccccc1)S(=O)(=O)c1c[nH]c(C(=O)OC)c1", "Potency": "inactive"}, {"compound": "Cc1nnc(SCC(=O)Nc2cc(S(=O)(=O)N3CCOCC3)ccc2C)s1", "Potency": "inactive"}, {"compound": "CC[n+]1c(/C=C(\\C)OC)sc2ccccc21", "Potency": "inactive"}, {"compound": "N#CC1C(=N)Cc2ccccc2-c2ccccc21", "note": "(stereo unspecified)", "Potency": "inconclusive [inhibitor, partial curve]"}, {"compound": "O=C(Nc1ccc(Cl)cc1C(=O)O)c1ccc2c(c1)C(=O)N(Cc1ccco1)C2=O", "Potency": "inconclusive [inhibitor, partial curve]"}, {"compound": "Nc1ccccc1Sc1ccc(C(F)(F)F)cc1[N+](=O)[O-]", "Potency": "inconclusive [inhibitor, partial curve]"}, {"compound": "COc1ccc(-c2nc3ccc(Cl)cn3c2CC(C)(C)C)cc1OC", "Potency": "inconclusive [inhibitor, partial curve]"}, {"compound": "CCCC(NCC(O)COc1ccc(-c2ccccc2)cc1)c1ccccc1", "note": "(stereo unspecified)", "Potency": "inconclusive [inhibitor, partial curve]"}, {"compound": "CCOc1ccc(C(=O)Nc2ccc3nc(N4CCN(CC)CC4)cc(C)c3c2)cc1", "Potency": "inactive"}, {"compound": "Cc1ccc(-n2nc3ccc(NC(=S)NC(=O)/C=C/c4ccco4)cc3n2)cc1", "Potency": "inactive"}, {"compound": "COc1ccc(C(NC(=O)CN2C(=O)NC3(CCc4ccccc43)C2=O)c2ccccc2)cc1", "note": "(stereo unspecified)", "Potency": "inconclusive [inhibitor, partial curve]"}, {"compound": "CN(CCc1ccccc1)C(=O)c1cc(COc2cccc(C(F)(F)F)c2)on1", "Potency": "inconclusive [inhibitor, full curve, poor fit]"}, {"compound": "Cc1ccc(S(=O)(=O)c2c(C)cc(C)nc2N2CCCC2)cc1", "Potency": "inconclusive [inhibitor, partial curve]"}, {"compound": "CC(C)(C)c1cc(CCC(=O)NCc2ccccn2)cc(C(C)(C)C)c1O", "Potency": "inconclusive [inhibitor, single point]"}, {"compound": "CCNC(=O)C1(C)CCCN(Cc2cccc(Oc3ccccc3)c2)C1", "note": "(stereo unspecified)", "Potency": "inconclusive [inhibitor, partial curve]"}, {"compound": "COc1ccc(C(CC(=O)N2CCN(c3ccccc3)CC2)c2c(O)cc(OC)cc2OC)cc1", "note": "(stereo unspecified)", "Potency": "inconclusive [inhibitor, partial curve]"}, {"compound": "O=c1cc(CN2CCN(c3ccc(Cl)c(Cl)c3)CC2)c2ccccc2o1", "Potency": "inactive"}, {"compound": "CCO/C(C)=N/Oc1cc(OC)cc(OC)c1", "Potency": "inconclusive [inhibitor, full curve]"}, {"compound": "CN(CCOC(=O)c1ccc2c(c1)OCO2)C(C)(C)C", "Potency": "inconclusive [inhibitor, single point]"}, {"compound": "Cc1ccc(C)c(Sc2ccc(S(=O)(=O)Nc3ccc(C(=O)O)cc3)cc2)c1", "Potency": "inconclusive [inhibitor, full curve]"}, {"compound": "COc1ccccc1C1CC(=O)Oc2ccc(C(C)(C)C)cc21", "note": "(stereo unspecified)", "Potency": "inconclusive [inhibitor, full curve]"}, {"compound": "O=C(Nc1ccc(C(O)(C(F)(F)F)C(F)(F)F)cc1)c1ccc(Cl)c([N+](=O)[O-])c1", "Potency": "inconclusive [inhibitor, partial curve]"}, {"compound": "Clc1cccc(-c2ccc3nccn3c2)c1Cl", "Potency": "inconclusive [inhibitor, partial curve]"}, {"compound": "CCOc1cc(/C=C/C(=O)NCCc2ccc(S(N)(=O)=O)cc2)ccc1OCC(C)C", "Potency": "inconclusive [inhibitor, full curve, poor fit]"}, {"compound": "Cc1ccc(C)c(Sc2ccc(NC(=O)CCl)cc2)c1", "Potency": "inconclusive [inhibitor, partial curve]"}, {"compound": "COc1ccc2c(c1)sc(N)[n+]2Cc1cc(C)cc2cccnc12", "Potency": "inconclusive [inhibitor, partial curve]"}, {"compound": "COc1ccc(Cl)cc1-c1n[nH]c(=S)n1C1CCCCC1", "Potency": "inconclusive [inhibitor, single point]"}, {"compound": "CC(C)C[C@H]1CNC(=O)C(=O)N1C[C@@H]1CCCN1C[C@H](Cc1ccc(O)cc1)N1C[C@H](Cc2ccccc2)N(CC2CCCCC2)C(=O)C1=O", "Potency": "inconclusive [inhibitor, partial curve]"}, {"compound": "CC(C)(C)c1csc(Sc2ncccc2[N+](=O)[O-])n1", "Potency": "inconclusive [inhibitor, single point]"}, {"compound": "COC(=O)c1ccc2c(c1)c(-c1ccccc1)c(-c1ccccc1)n2C", "Potency": "inconclusive [inhibitor, full curve, poor fit]"}, {"compound": "CC(/C=C1\\SC(=S)N(CCC(=O)Nc2cccc(C(=O)O)c2)C1=O)=C\\c1ccccc1", "Potency": "inconclusive [inhibitor, single point]"}, {"compound": "Cc1onc(-c2c(F)cccc2Cl)c1C(=O)OCc1cnc(Cl)s1", "Potency": "inconclusive [inhibitor, full curve]"}, {"compound": "CC(C)(C)c1ccc(Cn2nnc3c(=O)[nH]c(C4CCN(C(=O)Cc5cccs5)CC4)nc32)cc1", "Potency": "inconclusive [inhibitor, partial curve]"}, {"compound": "O=C1NC(=Nc2ccccc2Cl)S/C1=C\\c1cccc([N+](=O)[O-])c1O", "Potency": "inconclusive [inhibitor, partial curve]"}, {"compound": "O=C1C=C(c2c(O)ccc3ccccc23)c2ccccc2C1=O", "Potency": "inconclusive [inhibitor, single point]"}, {"compound": "Cc1ccc(C)c(-c2ccc(=O)n(Cc3c(F)cccc3Cl)n2)c1", "Potency": "inconclusive [inhibitor, partial curve]"}, {"compound": "CCOc1ccc(Cn2c(=O)sc3ccccc32)cc1", "Potency": "inconclusive [inhibitor, single point]"}, {"compound": "COc1ccc(C(=O)Nc2cccc(/C=C(\\CCC(=O)O)c3nc4ccccc4s3)c2)cc1", "Potency": "inactive"}, {"compound": "COc1cc(C)c(/C=C/C(C)=C/C=C/C(C)=C/C(=O)O)c(C)c1C", "Potency": "active: 10 µM"}, {"compound": "O=C(CN1C(=O)S/C(=C\\c2cc(Cl)c(O)c(Cl)c2)C1=O)Nc1ccccc1", "Potency": "inconclusive [inhibitor, partial curve]"}, {"compound": "CCOC(=O)c1c(-c2ccc(C)cc2)csc1NC(=O)CCN1CC(C)OC(C)C1", "note": "(stereo unspecified)", "Potency": "inconclusive [inhibitor, single point]"}, {"compound": "COc1ccc(C(=O)CC(=O)c2ccccc2O)cc1OC", "Potency": "inactive"}, {"compound": "O=[N+]([O-])c1ccc(N=Nc2c(Cl)cc(O)cc2Cl)cc1", "Potency": "inconclusive [inhibitor, partial curve]"}, {"compound": "CC(C)(C)c1cc(OC(=O)C2CCCC2)ccc1O", "Potency": "inconclusive [inhibitor, partial curve]"}, {"compound": "CC(=O)N1c2ccc(S(=O)(=O)NCCC(=O)Nc3ccccc3C)cc2CC1C", "note": "(stereo unspecified)", "Potency": "inactive"}, {"compound": "CC(C)n1nccc1N(Cc1ccc(Cl)cc1)S(=O)(=O)c1ccccc1", "Potency": "inconclusive [inhibitor, single point]"}, {"compound": "O=C1NC(=O)C2(CCC(C(=O)O)C2)N1", "note": "(stereo unspecified)", "Potency": "inconclusive [inhibitor, single point]"}, {"compound": "O=C(CSc1nc2ccccc2s1)N/N=C/c1ccco1", "Potency": "inconclusive [inhibitor, single point]"}, {"compound": "O=c1[nH]c(SCc2ccccc2F)nc2ccccc12", "Potency": "inconclusive [inhibitor, partial curve]"}, {"compound": "Cc1ccc(O)c(NC(=O)C2CCCCC2)c1", "Potency": "inconclusive [inhibitor, single point]"}, {"compound": "CCOC(=O)CC(=O)CSCC(=O)Nc1ccc(C)cc1", "Potency": "inactive"}, {"compound": "COc1ccc(Cl)cc1C(=O)Nc1ccc(Br)c(C)n1", "Potency": "inconclusive [inhibitor, single point]"}, {"compound": "O=C(Nc1cccc(Oc2ccc(C(=O)O)c(C(=O)O)c2)c1)c1ccc(-c2ccccc2)cc1", "Potency": "inactive"}, {"compound": "C/C(=N\\N(c1ccccc1)c1ccccc1)c1ccc(O)cc1", "Potency": "inconclusive [inhibitor, partial curve]"}, {"compound": "COC(=O)C1=C(C)NC(C)=C(C(=O)OC)C1C(=O)OCc1nnc(-c2ccccc2Cl)o1", "Potency": "inconclusive [inhibitor, partial curve]"}, {"compound": "O=C(NC(=S)N1CCN(c2ccc(Cl)cc2[N+](=O)[O-])CC1)c1cccs1", "Potency": "inactive"}, {"compound": "COc1ccc(NC(=O)C2(C)Cc3c(-c4cccc(C(F)(F)F)c4)ccnc3O2)cn1", "note": "(stereo unspecified)", "Potency": "inconclusive [inhibitor, partial curve]"}, {"compound": "O=C(OCc1c(-c2ccccc2)ncc2ccccc12)c1ccco1", "Potency": "inconclusive [inhibitor, partial curve]"}, {"compound": "O=C(/C=C/[C@H]1O[C@@H](n2ccc(=O)[nH]c2=O)[C@H](O)[C@@H]1O)N[C@@H](Cc1ccccc1)C(=O)O", "Potency": "inconclusive [inhibitor, single point]"}, {"compound": "OC(CN(Cc1ccccc1)Cc1ccccc1)c1ccccc1", "note": "(stereo unspecified)", "Potency": "inconclusive [inhibitor, full curve]"}, {"compound": "Cc1ccc(C)n1-c1nn(S(=O)(=O)c2cccc(C(F)(F)F)c2)c2cccc(F)c12", "Potency": "inconclusive [inhibitor, full curve]"}, {"compound": "COc1ccc(O)c(/C=N/NC(=O)c2cccc(N3CCCC3=O)c2)c1", "Potency": "inactive"}, {"compound": "C=CCc1cccc2cc(C(=O)Nc3ccc(F)cc3)c(=O)oc12", "Potency": "inactive"}, {"compound": "CCS(=O)(=O)C1=NN2C(=N)/C(=C\\c3ccc(OCCOc4cccc(OC)c4)c(OC)c3)C(=O)N=C2S1", "Potency": "inconclusive [inhibitor, partial curve, poor fit]"}, {"compound": "Cc1cc(-c2ccc(Cl)cc2)n2nc(C)cc2n1", "Potency": "inconclusive [inhibitor, partial curve]"}]}]}
